Data reported in publication PMC12136788.
This is one part of the list.

T1: UNK ZnF1-3 (human, UniProt Q9C0B0 31-174)
T1 sequence: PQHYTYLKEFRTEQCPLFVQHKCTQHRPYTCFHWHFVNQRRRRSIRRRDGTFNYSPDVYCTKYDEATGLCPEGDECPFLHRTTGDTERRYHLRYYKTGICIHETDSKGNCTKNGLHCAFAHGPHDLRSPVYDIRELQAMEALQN

B1: chr17:7479872:7479873:+_ENSG00000161960_ENST00000293831|hu_hu|FALSE|FALSE (ssRNA)
RNA: GGGAGUUCUACAGUCCGACGAUCAGCACGCACGUUGGUGCCCCCGAUACAGGCGUGACAGGAGGCGCCCAUGUAGUCUCCUAGUGCCAUGACCACCUUCUGUAUCUGCUGAGCCAAUUCUCGAGUGGGUGCUAGGACCAAGGCCAACAGAGGAUUGAGCAUCA
B2: chr1:39494564:39494565:+_ENSG00000168653_ENST00000372967|hu_hu|hu_hu_hu_mus_True|1_38 (ssRNA)
RNA: GGGAGUUCUACAGUCCGACGAUCAUGCAUUCGCCUCAUCGUUUUGUACCGAAGCAAGCACUCUUCGAAGUCAUCGAACUCUAUCUUGCACUCCUUUUCUGCCCGAGUCCCACCGAUCCCGUGUGCACACUCUAUCCAUUCUUUCAACAGAGGAUUGAGCAUCA
B3: chr14:76904430:76904431:+_ENSMUSG00000022010_ENSMUST00000022587|mus_mus|mus_mus_mus_hu_True|8_38 (ssRNA)
RNA: GGGAGUUCUACAGUCCGACGAUCUGCAGCCAAAAACACCCUCGUGGAAAAAAAGAGGGAACACCAGCAGCCUUGUAUAAGCUAGAUAAAAUCUUCUAGCUGUCUGCAGCCCAGGGAGAAACAGAAAUGGUGCUGGCUAAUUUACAACAGAGGAUUGAGCAUCA
B4: 23106879_23112864_568_CDS_ENSG00000147457_ENST00000313219|human|control|control (ssRNA)
RNA: GGGAGUUCUACAGUCCGACGAUCUGGGCAGGAGUUAGCACAGAGGGUGCUGAGCUCUGACAGGGCCACCACGGGGUGGGAGGAGAGGGGCGAGUUCUGAUACAGACGAUACACCUCCUCAGCCUUUUCCUUCAACAGCUCCACCAACAGAGGAUUGAGCAUCA
B5: chr5:31223311:31223312:+_ENSMUSG00000029163_ENSMUST00000031055|mus_hu|FALSE|FALSE (ssRNA)
RNA: GGGAGUUCUACAGUCCGACGAUCUGUCUCUUCAGCCGACGUAGACACGUCGGGCGGGACCCCAGUCUACGCGUGUUCAAGCUCUGGGUCCCCAUAGAGCAGGGCCCCGCUGAAGAUGGUGAGCGGCUCCUCCGAGUGCGCCAGCAACAGAGGAUUGAGCAUCA
B6: chr21:40768814:40768815:+_ENSG00000182093_ENST00000333781|hu_hu|motif|central (ssRNA)
RNA: GGGAGUUCUACAGUCCGACGAUCCCAUCCUCCUGUUCAGCUGAACGGAUGAAGCACAAUAGCGACAACUUUGUUACAGACGGAAAUCCAACAGGUAAUUCCAACACCACCUGCUACUCUAGUAGGAAAGGCUACCAGGCGGUCCAACAGAGGAUUGAGCAUCA
B7: chr12:39756943:39756944:-_ENSG00000139116_ENST00000544797|hu_mus|hu_hu_hu_mus_False|18_78 (ssRNA)
RNA: GGGAGUUCUACAGUCCGACGAUCGGUUUGGCUGUUACCCCCAAGGGAAUCCUGCAAUAGUCUUGUUAGCUUAGAGUCUCUGUAAGGGACAUGGGUGGCUCUCUUGCUCUUGUCCCCCAAGGCACUUAUUACAUUCCCAAGAGCCAACAGAGGAUUGAGCAUCA
B8: 46320489_46320609_3168_CDS_ENSG00000139218_ENST00000369367|human|control|control (ssRNA)
RNA: GGGAGUUCUACAGUCCGACGAUCUUUUCUUGUAUUUUCAUUCUGUUUCUCUGGGUCAUUCUUUCUGUACCGAUCAUUUCCUCGUGGACAUCUCCAACCAUCAUUUGCCCAUCUUCCCUUCCACCGGGGAGAGUAACUAUCUCUCAACAGAGGAUUGAGCAUCA
B9: 213244347_213251121_315_CDS_ENSG00000136643_ENST00000366960|human|control|control (ssRNA)
RNA: GGGAGUUCUACAGUCCGACGAUCUGAAUGUCGGAAUAAGUUUUUGUGAAUUUGCCAUAGUUCUUUGUGUAGUUUCUUAAAAUCACUGUAUCUCUUCCAUACAAUUAUCUCCUGGACAUCCUCUGGAUUUCUUCGUGAAACAACCAACAGAGGAUUGAGCAUCA
B10: chr17:88379672:88379673:+_ENSMUSG00000005370_ENSMUST00000005503|mus_hu|motif|central (ssRNA)
RNA: GGGAGUUCUACAGUCCGACGAUCUCCCUUCUGGGCUUCCUUUGAUUUUGAACCUGUAUAUGGCUUUAAAAGCCUUUUGCGGACCCAGCCCCUUGUUGGGCUGUCAUCAAAAAACUGUACAUGAACACGGACUGAUUUCCCUUUCAACAGAGGAUUGAGCAUCA
B11: chr8:59488481:59488482:+_ENSG00000137575_ENST00000447182|hu_mus|FALSE|FALSE (ssRNA)
RNA: GGGAGUUCUACAGUCCGACGAUCUCCAGCAUCGUUACCUGUCACAGGUGCUACCAUAUAGUUCACACUGGAUGGUCUUGCUACCAACCCUUGUGCUGGUGCUCCAGAGACCAUGGGCAUGCUCUCACAUAUUUCAGCUUCAUUCAACAGAGGAUUGAGCAUCA
B12: chr12:39752152:39752153:-_ENSG00000139116_ENST00000544797|hu_mus|FALSE|FALSE (ssRNA)
RNA: GGGAGUUCUACAGUCCGACGAUCGUACUUCAGAGUGUUUAACGUCUCCAUGAAAUCCCUGUCUGAAGGGCUGACGCAUGCUAUCAUGAUGGUUUGGCUGUUACCCCCAAGGGAAUCCUGCAAGAGUCUUGUCAGCUUAGAGUCCAACAGAGGAUUGAGCAUCA
B13: chr3:58352644:58352645:+_ENSMUSG00000027810_ENSMUST00000029387|mus_mus|FALSE|FALSE (ssRNA)
RNA: GGGAGUUCUACAGUCCGACGAUCCUUAUGCAAAAGAGAGCCAGUAUAAUGCCAGAUCUUAUACCCAUUAUUAACACGUAACCUAGGAGCACAUGUGGCUGUUAAGAUAUGCUCACCAUCUGGGCACCAGGCAAAAUAUGUAGACAACAGAGGAUUGAGCAUCA
B14: chr1:155751701:155751702:+_ENSMUSG00000026473_ENSMUST00000086199|mus_mus|FALSE|FALSE (ssRNA)
RNA: GGGAGUUCUACAGUCCGACGAUCAAACAUGGCAACAGGAUGGAGGUACAUGUCGCUGUUGGAGCCUUCAGACUGAAAGGUACUAGAGCCAUCAAAGUUCCACUCAGGUAACUCUUCCACACACUUGGGCUCACAGUCCAGGGUCAACAGAGGAUUGAGCAUCA
B15: 102558931_102559051_105_3pUTR_ENSMUSG00000020925_ENSMUST00000092569|mouse|control|control (ssRNA)
RNA: GGGAGUUCUACAGUCCGACGAUCGCGCCUCCAACCGUCCGUCAAGCCAGGAUCCAAAAGCCCCGCCAUCGCCUUCACCGAGGACUGCCGCGGCCACUUCGCUGGGCGCCGCCAUGCUGGGGACAGGGUCCUGCCGGACCCGAGCAACAGAGGAUUGAGCAUCA
B16: chr7:44244176:44244177:+_ENSG00000106636_ENST00000223369|hu_mus|hu_hu_hu_mus_False|48_108 (ssRNA)
RNA: GGGAGUUCUACAGUCCGACGAUCACUAUCAUUCCGGACGUAGACAUGGCAAAGAUACUCUUGUUCUUUGACAGAAGCUCUGCUGCCUUUCGAUGAGCGUUCCACAAUCAGUUGACUUGUAAAGGUCAUGAAUUCCUGCACACUCAACAGAGGAUUGAGCAUCA
B17: chr7:56126341:56126342:+_ENSG00000146731_ENST00000540286|hu_mus|hu_hu_hu_mus_True|78_98 (ssRNA)
RNA: GGGAGUUCUACAGUCCGACGAUCCAUGUUUCUCCUCUUAGCUCUGCGCAGAGCUACUAUGCCUUCUUUCGCAAGGGCAUCUAAGGAAAAGGGGUCAAUCCCCUUUUGAUUAAUAACGACAAAUCCUUUAUCUGAGUCACCACACAACAGAGGAUUGAGCAUCA
B18: chr16:75203323:75203324:+_ENSG00000184517_ENST00000393430|hu_hu|motif|central (ssRNA)
RNA: GGGAGUUCUACAGUCCGACGAUCUGCUUUUCCAAAUUCAUUACACUCAUCAGUCUGCUUUCCUGCAUAGCUUCUAUUACGGUUAAGCAAGUCUGAAUUAUAUUUCAAAGUUUUUUCAUAUAAGUCAUAUUUAUAAGGUACUUGCAACAGAGGAUUGAGCAUCA
B19: chr7:7679991:7679992:-_ENSG00000106399_ENST00000396682|hu_hu|hu_hu_hu_mus_False|28_68 (ssRNA)
RNA: GGGAGUUCUACAGUCCGACGAUCUGGGAUGAAUCUUUUCCAGCUUCCCCACGAAGCACACGGGCCGGUCGAUGAAUUGUGGUAACAUGCUGGCGUUGACGCGCGCUCUGGGCAAGUGCAUUAUGUCCUCCAUGAUUCUGCCGCCAACAGAGGAUUGAGCAUCA
B20: 72196774_72196894_5025_CDS_ENSG00000197555_ENST00000381232|human|control|control (ssRNA)
RNA: GGGAGUUCUACAGUCCGACGAUCGGAGGUGAAAAAGUGCUCCCUCUGGCUAUUGUAAAUGCUCUCGUCCGACAGUGUUCUGUGCAAGGCCCGCCGUGAGGUGGGGGUGCUGGGGAAAGGAGACUGAGGAGAGGAGAGUGCGUGCAACAGAGGAUUGAGCAUCA
B21: 64395045_64395165_1508_CDS_ENSG00000118482_ENST00000393387|human|control|control (ssRNA)
RNA: GGGAGUUCUACAGUCCGACGAUCAUACUUUGCUGCAACAAUUUUCUUCGGAGCAUCUGUGGUCAUGUUUUGCUUAGAAUGAAUUACAGGUUUUGUAUGUUUGGAUUUUACACUUUUUGACUCUAAGUAAGAAACGCUACUUGACAACAGAGGAUUGAGCAUCA
B22: chr12:105536279:105536280:+_ENSG00000136051_ENST00000332180|hu_mus|hu_hu_hu_mus_True|38_38 (ssRNA)
RNA: GGGAGUUCUACAGUCCGACGAUCAGCACUGAACAUGUAAUGUAAUCUGGCUGCAUCGACAGCAUUUUCAUAUACAUCAUCUAAAUAAAUCGGGAAGACAGCUCGAUGCCAGUAUAAAAAACAGCAGUCACACUGUGCUUGGACCAACAGAGGAUUGAGCAUCA

Each binder was assayed against T1, UNK ZnF1-3 (assay: nsRBNS (natural sequence RNA bind-n-seq); RBNS binding buffer (assumed for nsRBNS): 25 mM Tris pH 7.5, 150 mM KCl, 3 mM MgCl2, 0.01% Triton X-100, 500 ug/ml BSA, 20 U/ml SUPERase-In, 4 C; UNK is unkempt and MSI1 is Musashi-1; names of the RNAs are library labels; protein concentration not given here; high values mean tight binding).

Binder | binding signal [enrichment R]
B1 | 1.39
B2 | 0.8
B3 | 2.49
B4 | 2.38
B5 | 0.61
B6 | 0.841
B7 | 0.662
B8 | 0.438
B9 | 0.636
B10 | 0.59
B11 | 0.652
B12 | 0.735
B13 | 1.2
B14 | 1.15
B15 | 0.822
B16 | 0.65
B17 | 0.642
B18 | 0.848
B19 | 0.568
B20 | 1.33
B21 | 0.892
B22 | 2.37
